Data taken from PMC6919601, “Identification of Plasmodium dipeptidyl aminopeptidase allosteric inhibitors by high throughput screening” (PLoS ONE, 2019).
In all, about 110,000 compounds went through this assay and about 230 (0.21%) showed an effect of 50% or more. Some of the results follow.

target: DPAP1 (Plasmodium falciparum, UniProt Q8IIJ9); experiment: primary screen, percent inhibition; read by cleavage of a fluorogenic dipeptide substrate; higher = more effect of the substance; design: species or system P. falciparum D10 trophozoite lysates; single well
Sequence (Q8IIJ9 whole entry, looked up): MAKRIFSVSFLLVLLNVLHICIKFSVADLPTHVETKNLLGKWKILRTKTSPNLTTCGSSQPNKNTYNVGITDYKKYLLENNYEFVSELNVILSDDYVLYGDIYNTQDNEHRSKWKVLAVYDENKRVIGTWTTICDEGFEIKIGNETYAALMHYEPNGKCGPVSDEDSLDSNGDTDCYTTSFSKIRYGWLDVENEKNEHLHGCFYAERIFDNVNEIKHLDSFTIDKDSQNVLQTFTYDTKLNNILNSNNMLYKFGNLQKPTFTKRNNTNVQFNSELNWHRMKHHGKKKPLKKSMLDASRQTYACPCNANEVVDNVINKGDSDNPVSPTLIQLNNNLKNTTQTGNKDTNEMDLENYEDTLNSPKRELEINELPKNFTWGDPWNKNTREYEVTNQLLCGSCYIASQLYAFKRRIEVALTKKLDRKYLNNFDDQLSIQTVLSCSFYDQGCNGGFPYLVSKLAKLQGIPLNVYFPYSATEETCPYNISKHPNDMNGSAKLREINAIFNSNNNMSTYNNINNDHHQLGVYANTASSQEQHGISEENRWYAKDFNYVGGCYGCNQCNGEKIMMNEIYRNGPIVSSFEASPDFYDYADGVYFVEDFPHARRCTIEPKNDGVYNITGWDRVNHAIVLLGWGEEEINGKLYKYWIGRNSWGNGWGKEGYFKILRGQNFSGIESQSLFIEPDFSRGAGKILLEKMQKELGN
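Also: 30 min substrate incubation versus DMSO and 10 µM JCP410 controls.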

Compound	% Inhibition @ 10 uM
CC/C(=N\c1cccc2ccccc12)C1=C(O)CCCC1=O	0.674%
O=C(Cn1ncc2c3ccccc3nc-2c1O)N1CCC(c2ccccc2)C1 (stereo not shown)	2.36%
N#CCNC(=O)[C@H](CSc1ccccc1)NC(=O)OCc1ccccc1	2.86%
COC(=O)C1=C(C)N(C)C(C)=C(C(=O)OC)C1c1ccc(C)s1	5.55%
CCOc1ccccc1N(CC(=O)Nc1ccc(Br)cc1)S(C)(=O)=O	-3.77%
CCc1ccc(CN(C(=O)c2ccccc2OC)C2CCS(=O)(=O)C2)cc1 (stereo not shown)	-5%
FC(F)(F)c1cccc2c1[nH]c1nc3ccccc3nc12	3.73%
Cc1ccccc1Cn1c(C(O)c2ccccc2)nc2ccccc21 (stereo not shown)	2.73%
O=C(O)c1cccc(-c2ccc(/C=C3\SC(=S)N(C4CCCCC4)C3=O)o2)c1	7.85%
COc1ccc(-c2cc(C(F)(F)F)n3nc(C(=O)NCCCN4CCOCC4)c(Cl)c3n2)cc1	1.58%
CCOc1ccc2nc(SCC(=O)c3ccc(OC)cc3)sc2c1	1.13%
N#CC1=C(N)Oc2c(oc(CO)cc2=O)C1c1ccc(Br)s1 (stereo not shown)	0.726%
C/C(Cl)=C/Cn1c(N2CCOCC2)nc2c1c(=O)[nH]c(=O)n2C	-1.2%
COc1cccc(COC(=O)N[C@@H](CC2CCCCC2)C(=O)NCC#N)c1	-0.214%
CNc1nsc(C(=O)c2ccc(F)cc2)c1N	0.0719%
CCCCOc1ccc(-c2ncc([N+](=O)[O-])cn2)cc1	-0.239%
COc1cccc(C2CC(c3ccc(OC)c(OC)c3OC)n3nnnc3N2)c1 (stereo not shown)	-3.37%
Cc1nc(SCC(=O)NCc2ccccc2)c(C#N)c(C)c1Cl	1.03%
CC(C)C[C@@H](C#N)NC(=O)[C@H](CC1CCCCC1)NC(=O)OCc1ccccc1	0.174%
CC1CN(Cc2cccc(Br)c2)CC(C)O1 (stereo not shown)	0.827%
COc1cc2nc(SCC(=O)c3ccccc3)n3nc(C)nc3c2cc1OC	2.9%
Cc1ccc(Cl)cc1N1CCN(C(=O)CN(c2ccc(F)cc2)S(C)(=O)=O)CC1	24.4%
CS(=O)(=O)N(CC(=O)N1CCN(c2ccccc2F)CC1)Cc1ccccc1	-3.71%
O=C(O)c1ccccc1/C=C\c1ccsc1	6.4%
CN1C(=O)C(=Cc2cccn2-c2nnc(-c3ccccc3)s2)C(=O)N(C)C1=O	5.1%
O=C(O)[C@H]1CCCC[C@H]1C(=O)NCCC1=CCCCC1	-11.9%
CCCC(=O)c1c(NC(C)C)cc(C)oc1=O	-0.192%
COc1cc(C2=N/C(=C\c3cccnc3)C(=O)O2)cc(OC)c1OC	-1.87%
